To fix the notation:
B1: CPEB3 Ribozyme (parent)
chain: UAACAGGGGGCCACAGCAGAAGCGUUCACGUCGCAGCCCCUGUCAGAUUCUGGUGAAUCUGCGAAUUCUGCUGUAUAUCUC

Read counts are not given, so values of variants with three or more changes are uncertain.

Variants of B1 are the subject of the data set. In words: self-cleavage, relative activity (ratio to wild type); higher = more cleavage; in vitro, sequencing. In a few lines:
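Libraries of CPEB3 self-cleaving ribozyme mutants came from rounds of error-prone PCR and carried barcodes, which DNA sequencing matched to variants. In vitro transcription used T7 RNA polymerase at 37°C for 5 hours, with a further 15 min in DNase I before EDTA stopped the reaction; the ribozymes cleaved during both steps. The RNA was reverse transcribed with template switching and sequenced on Illumina. Relative activity is the cleaved/total read fraction of a variant divided by that of the unmutated ribozyme, averaged over three batches with at least 5 reads.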
In the case of UAACAGGGGGCCACAGCAGAAGCGUUCACGUCGCAGCCCCUGUCAGAUUCUGGUGUAUCUGCGAAUUCUGCUGCAUAACUC, the self-cleavage was 0.6.
With UAACAGGGGGCCACAGCAGAAGCGUUCACGUCGCAGCCCCUGUCAGAUUCUGGUGAAUAUGCGAAUUCAGCAGUAUAUCUC the figure was 0.1; with UAACAGGGGGCCACAGCAGAAGCGUUCACGUCGCAGCCCCUGUCAGAUUCUGGUGAACCCGCGAAUUCUGCUGUAUACCUC, 0.47; with UAACAGGGGGCCACAGCAGAAGCGUUCACGUCGCAGCCCCUGUCAGAUUCUGGUGAACCUGCGAAUUCUGCAGUAUAUCCC, 0.74.
For UAACAGGGGGCCACAGCAGAAGCGUUCACGUCGCAGCCCCUGUCAGAUUCUGGUGAACCUGCGAAUUCGGCCGUAUAUCUC, the self-cleavage came out at 0.22.
With UAACAGGGGGCCACAGCAGAAGCGUUCACGUCGCAGCCCCUGUCAGAUUCUGGUGAUUCUGCGCAUUCUGCUGUAUACCUC the figure was 0.15; with UAACAGGGGGCCACAGCAGAAGCGUUCACGUCGCAGCCCCUGUCAGAUUCUGGUGAAUCAGCGAAUUGUGCUGUAUAUCCC, 0.48.
As for UAACAGGGGGCCACAGCAGAAGCGUUCACGUCGCAGCCCCUGUCAGAUUCUGGUGAACCUGCGAAUUCUGCUGCCUAUCUC, the self-cleavage turned out to be 1.06.
Regarding UAACAGGGGGCCACAGCAGAAGCGUUCACGUCGCAGCCCCUGUCAGAUUCUGGUGAAUCUGCAUAUUCUGCAGUAUAUCUC, the self-cleavage is 0.28.
In the case of UAACAGGGGGCCACAGCAGAAGCGUUCACGUCGCAGCCCCUGUCAGAUUCUGGUGUAUCUGCGAAUUCCGCUGUACAUCUC it was 0.43; in that of UAACAGGGGGCCACAGCAGAAGCGUUCACGUCGCAGCCCCUGUCAGAUUCUGGUGAACCUGCGAGUUCCGCUGUAUAUCUC, 0.34; in that of UAACAGGGGGCCACAGCAGAAGCGUUCACGUCGCAGCCCCUGUCAGAUUCUGGUGAGUCUGAGGAUUCUGCUGAAUAUCUC, 0.69.
In the case of UAACAGGGGGCCACAGCAGAAGCGUUCACGUCGCAGCCCCUGUCAGAUUCUGGUGAUUCUGCGAACUCUGCUGUAUAUCUU it was 0.26.
In the case of UAACAGGGGGCCACAGCAGAAGCGUUCACGUCGCAGCCCCUGUCAGAUUCUGGUGAAUCCGCGAAUUCCGCUGCAUAUCUC it was 0.62; in that of UAACAGGGGGCCACAGCAGAAGCGUUCACGUCGCAGCCCCUGUCAGAUUCUGGUGUAUCCGCGAAUUCCGCUAUAUAUCUC, 0.33; in that of UAACAGGGGGCCACAGCAGAAGCGUUCACGUCGCAGCCCCUGUCAGAUUCUGGUGAGUCUGCGAAUCCUGCUGUGUAUCUC, 0.32.
For UAACAGGGGGCCACAGCAGAAGCGUUCACGUCGCAGCCCCUGUCAGAUUCUGGUGAAUCGGCGAAUUCUGCCUUAUAUAUC, the self-cleavage came to 0.77.
Take UAACAGGGGGCCACAGCAGAAGCGUUCACGUCGCAGCCCCUGUCAGAUUCUGGUGAAUCAGAGAACUCUGCUGUACAUCUC: the self-cleavage was 0.26.
Turning to UAACAGGGGGCCACAGCAGAAGCGUUCACGUCGCAGCCCCUGUCAGAUUCUGGUGAAACCGAGAAUUCUGCUGUAUAUCUC, the self-cleavage came to 0.25.
Take UAACAGGGGGCCACAGCAGAAGCGUUCACGUCGCAGCCCCUGUCAGAUUCUGGUGAAUCAGCGAAUUCCGCUGAAUAUCUC: the self-cleavage is 0.35.
Consider UAACAGGGGGCCACAGCAGAAGCGUUCACGUCGCAGCCCCUGUCAGAUUCUGGUGAGUCUGCGACUUCUGCAGUAUACCUC, for which the self-cleavage worked out at 0.11.
For the variant UAACAGGGGGCCACAGCAGAAGCGUUCACGUCGCAGCCCCUGUCAGAUUCUGGUGAAUCCGCGAAUUCCGCUGAAUAUCCC, the self-cleavage came to 0.53.
With UAACAGGGGGCCACAGCAGAAGCGUUCACGUCGCAGCCCCUGUCAGAUUCUGGUGAACCAGCGAAUUCUGCUGUAUAUCUG the figure was 0.2; with UAACAGGGGGCCACAGCAGAAGCGUUCACGUCGCAGCCCCUGUCAGAUUCUGGUGAAUCAGGGAAUUCUGCUGUAAAUCUC, 0.2.
Turning to UAACAGGGGGCCACAGCAGAAGCGUUCACGUCGCAGCCCCUGUCAGAUUCUGGUGAACCUGCGAAUGCUGCUGUAAAUCUC, the self-cleavage worked out at 0.16.
Regarding UAACAGGGGGCCACAGCAGAAGCGUUCACGUCGCAGCCCCUGUCAGAUUCUGGUGACUCUGCGAAUUCAGCAGUAUAUCUC, the self-cleavage is 0.2.
In the case of UAACAGGGGGCCACAGCAGAAGCGUUCACGUCGCAGCCCCUGUCAGAUUCUGGUGAAUCAGCGAGUUCUGCUGUAUACCUU it was 0.23; in that of UAACAGGGGGCCACAGCAGAAGCGUUCACGUCGCAGCCCCUGUCAGAUUCUGGUGAACCAGCGAAUUCUGCUGUAUAACUC, 0.15; in that of UAACAGGGGGCCACAGCAGAAGCGUUCACGUCGCAGCCCCUGUCAGAUUCUGGUGAGUCUGCGAGUUCGGCUGUAUAUCUC, 0.22.
In the case of UAACAGGGGGCCACAGCAGAAGCGUUCACGUCGCAGCCCCUGUCAGAUUCUGGUGAAUCCGCGAGUUCUGCUGUAAAUCUC it was 0.3; in that of UAACAGGGGGCCACAGCAGAAGCGUUCACGUCGCAGCCCCUGUCAGAUUCUGGUGAGUCUGCGAACUCAGCGGUAUAUCUC, 0.19; in that of UAACAGGGGGCCACAGCAGAAGCGUUCACGUCGCAGCCCCUGUCAGAUUCUGGUGAAUCAGCGAAUUCCGCAGUAUAUCUC, 0.35.
Turning to UAACAGGGGGCCACAGCAGAAGCGUUCACGUCGCAGCCCCUGUCAGAUUCUGGUGAAUCUCCGAAUUCUGCCGCAUAUCUC, the self-cleavage was determined as 0.48.
For the variant UAACAGGGGGCCACAGCAGAAGCGUUCACGUCGCAGCCCCUGUCAGAUUCUGGUGAAUCUGGGGUUUCUGCUGUAUAUCUC, the self-cleavage worked out at 0.11.

Source of the values: the RNAGym collection of RNA variant scans (doi:10.1093/nar/gkz1192).
